Measured values from PubChem BioAssay AID493208 (National Center for Advancing Translational Sciences (NCATS), 2011).
Among all 44,000 compounds or so, about 340 (0.77%) were called active. Not shown: some 5% with an inconclusive outcome. The call rests on the fitted dose curve; in most records, active means well fitted inhibition curve with a large enough effect; inconclusive means small, poorly fitted or top-dose-only effect; inactive means flat fitted curve, though single readings scatter. Some of the results follow.

assay: Acumen qHTS Assay for Inhibitors of the mTORC1 Signaling Pathway in MEF (Tsc2-/-, p53-/-) Cells: Sytravon; details: phospho-rpS6 immunofluorescence/PI, 24 h; series mostly up to 38.3 µM; activity change, negative = inhibition: at the top concentration;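 further: plate controls were DMSO for no effect and rapamycin for full effect; nearly all actives have a fitted effect of over 50% in size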
Outline: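 Tsc2-/-, p53-/- mouse embryonic fibroblasts (empty-vector line) exposed to compound 24 hrs at 37 C, fixed, immunostained for phospho-rpS6 and counterstained with propidium iodide. Acumen laser scanning gives % positive cells from Alexa 488/PI ratio, thresholded using 7.5 nM rapamycin; PI count gives viability.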

Activity change, negative = inhibition, inactive:
COc1ccc(NC(=O)CCCN2C(=O)C(c3ccccc3)Oc3cccnc32)cc1OC (stereo unspecified) -7.26%
COc1cc(-c2nnc(SCC(=O)N(C)C3CCCCC3)o2)cc(OC)c1OC 1.35%
Cc1ccc(CCNC(=O)CCCn2nc(C)c3c(C)n(-c4ccc(C)cc4)nc3c2=O)cc1 -3%
Cc1cc(N2CCN(C)CC2)nc2ccc(NC(=O)Nc3ccccc3Cl)cc12 -7.97%
Cc1ccc(OCC(=O)OCc2cc(=O)n3nc(C4CCCCC4)sc3n2)cc1 -5%
CCN(c1ncnc2c1c(-c1ccccc1)cn2-c1ccccc1)C1CCCCC1 11%
CCOc1ccccc1NS(=O)(=O)c1c(C(=O)OC)sc2cccc(F)c12 -11.1%
COc1ccc(OC)c(CCNC(=O)c2sc3nc4n(c(=O)c3c2C)CCCC4)c1 3.28%
COc1ccc(N(C(=O)c2ccccc2C)S(=O)(=O)c2ccc3c(c2)n(C)c(=O)n3C)cc1 0.609%
CSCCC(NC(=O)C1CCCCC1)C(=O)Nc1ccc(F)c(Cl)c1 (stereo unspecified) 4.26%
CCNc1c(NC(=O)c2ccccc2OCC)c(=O)oc2ccccc12 -5.87%
Cc1ccc(N2C(=O)[C@@H]3CSC(c4ccc(C(F)(F)F)cc4)N3C2=O)cc1 (stereo partly specified) -8.46%
COc1cccc(-c2nc(SC(C(C)=O)C(=O)N(C)C)c3c(=O)n(C)c(=O)n(C)c3n2)c1 (stereo unspecified) 1.12%
CCOC(=O)C1=C(CNCc2ccccc2)NC(=O)NC1c1ccc(C)cc1 (stereo unspecified) -0.0779%
COc1ccc(-n2c(=O)c3c(C)c(C)sc3n(Cc3ccc(F)cc3)c2=O)c(OC)c1 2.33%
Cc1ccc(S(=O)(=O)N2CCCc3cc(NC(=O)c4ccc(C(F)(F)F)cc4)ccc32)cc1 0%
O=C(Nc1ccc(F)cc1)c1cccc(N2CCCS2(=O)=O)c1 -0.243%
CCOc1ccccc1NC(=O)C1CCN(S(=O)(=O)Cc2ccccc2)CC1 -19%
Cc1cc(=O)n(C(C)C(=O)NCc2ccccc2Cl)c2c1c(C)nn2-c1ccccc1 (stereo unspecified) 1.21%
COc1cc(OC)c(C2C=C(c3ccc(C)cc3)Nc3c(C(=O)Nc4ccccc4)cnn32)cc1OC (stereo unspecified) -13.6%
Cc1cc(O)c(C(c2ccccc2Cl)N2CCCCC2)c(=O)n1Cc1ccco1 (stereo unspecified) 4.36%
Cc1ccc(C(C)C)c(OCC(=O)Nc2c(C(=O)c3ccc(F)cc3)oc3ccccc23)c1 9.35%
Cc1c2cnn(CC(=O)N3CCCCC3)c(=O)c2c(C)n1Cc1ccc(Cl)cc1 -7.62%
Cc1ccc(NC(=O)c2ccc3c(=O)n4nc(Nc5ccccc5C)sc4nc3c2)cc1C -0.712%
CCc1ccc(C2N3CC4(C)CN2CC(c2ccccc2)(C3)C4=O)cc1 (stereo unspecified) 4.14%
CCn1cc(C(=O)NCc2ccccc2)c(=O)c2cc(S(=O)(=O)N3CCOCC3)ccc21 0.156%
COC(=O)C1=C(C)NC(=O)NC1c1cn(-c2ccccc2)nc1-c1ccc(OC)c(Cl)c1 (stereo unspecified) -13.8%
Cc1ccc(/C=C/c2onc(C)c2S(=O)(=O)N2CCC(C(=O)NCc3ccc(Cl)cc3)CC2)cc1 -10.2%
CC(NC(=O)c1ccc(N2Cc3ccccc3Oc3ncccc32)s1)c1ccccc1 (stereo unspecified) 3.72%
CCOC(=O)C(C)NC(=O)c1cc2c(=O)[nH]c3ccc(C)cc3c2s1 (stereo unspecified) -5.49%
O=C(NCCc1ccc(Cl)cc1)c1ccc2c(c1)N(Cc1ccc(F)cc1Cl)C(=O)CS2 -73.4%
Cc1c(Cl)cccc1NC(=O)C(=O)NCCc1csc(-c2cccc(F)c2)n1 2.65%
COc1ccc(NC(=O)c2ccc(-c3cccc(Cl)c3C)o2)cc1 16.1%
COc1ccc(-c2[nH]c(-c3ccccc3)nc2SCC(=O)Nc2ccc3c(c2)OCO3)cc1 -16.9%
CCn1c(CN2CCCCC2)nc2cc(NC(=O)COc3ccc([N+](=O)[O-])cc3)ccc21 0.427%
CC(NC(=O)Cc1ccc(NC(=O)N2CCCCc3ccccc32)cc1)c1ccccc1 (stereo unspecified) 1.81%
COc1ccc(-c2nc(CSc3nc4ncccc4[nH]3)c(C)o2)cc1OC -2.52%
CCN1C(=O)c2ccccc2S(=O)(=O)c2ccc(C(=O)NCc3ccc(F)cc3)cc21 -8.65%
Cc1ccc(CNC(=O)CN2C(=O)COc3ccc(S(=O)(=O)N4CCC(C)CC4)cc32)cc1 7.41%
CSc1cccc(NC(=O)c2ccc3c(c2)CCCN3S(C)(=O)=O)c1 -3.12%
Cc1ccc(/C=C/C(=O)Nc2ccc(Cl)cc2Cl)cc1 2.15%
CCCCCCn1c(/C=C/c2ccccc2)nc2ccccc21 7.68%
COc1ccc(NC(=O)c2ccc3[nH]c(C)cc(=O)c3c2)cc1 3.15%
Cc1ccc(-n2cc(C(=O)OCc3ccc(Cl)cc3)c3ccccc3c2=O)cc1 -8.52%
Cc1ccc(NC(=O)Cc2coc3c(C)c(C)ccc23)c(C)c1 6.29%
Cc1ccc(C)c(NC(=O)CN(Cc2ccccc2)S(=O)(=O)c2ccc3nc(C)sc3c2)c1 1.28%
COC(=O)C1CCN(c2csc3ccc(C)cc3c2=O)CC1 -8.91%
CCN(CCCNC(=O)c1ccc(Sc2ccc(Cl)cc2)c(NC(C)=O)c1)c1cccc(C)c1 6.43%
CCc1nn(CCCC(=O)NCc2ccc(OC)c(OC)c2)c(=O)c2cc3occc3n12 1.55%
CN1c2ccccc2-c2nc(SCC(=O)Nc3ccccc3)ncc2S1(=O)=O -9.69%
COc1cc(C2Oc3nc(SC)nnc3-c3ccccc3N2C(C)=O)cc(Cl)c1OC (stereo unspecified) 0.707%
Cc1ccc(-n2ncc3c(NCc4ccccc4)ncnc32)cc1C -20.1%
Cc1cc(Br)ccc1NC(=O)c1sc2ncn(Cc3ccccc3Cl)c(=O)c2c1C 0.972%
O=C(CSc1oc(-c2ccco2)nc1S(=O)(=O)c1ccc(Br)cc1)c1ccc(Cl)cc1 -7.39%
CC1=C(C(=O)Nc2cccnc2)C(c2ccc(F)cc2)n2nc(SCc3ccccc3)nc2N1 (stereo unspecified) -22.6%
CCCNC(=O)Cn1nc(C)c2c(C)n(-c3ccccc3)nc2c1=O -0.429%
Cc1cccc(NC(=O)CCS(=O)(=O)c2cc(Br)cc3c2N(C(=O)C2CC2)CC3)c1C -0.571%
CC1CCN(S(=O)(=O)c2cccc(C(=O)N(C)C3(C)CCS(=O)(=O)C3)c2)CC1 (stereo unspecified) 5.3%
COc1cc(OC)c(NC(=O)CSc2nc3ccncc3[nH]2)cc1Cl 1.51%
CC(NC(=O)C1CCN(C(=O)N2CCOc3ccccc32)CC1)c1ccccc1 (stereo unspecified) 2.28%
CCCCNC(=O)CSc1nc2ccccc2nc1Cc1ccccc1 -0.721%
